According to patent US20250282874A1 (SUZHOU TRANSCENTA THERAPEUTICS, published 2025):
Like-named read-outs stand apart in the source and are kept apart here.

Columns and labels:
hPD-L2 = target: T1, hPD-L2 (human, UniProt Q9BQ51 20-219, limits assumed); assay: ELISA, hPD-L2 (0.5 ug/mL) coated, anti-human Fc-HRP, OD450
T1 sequence (looked up): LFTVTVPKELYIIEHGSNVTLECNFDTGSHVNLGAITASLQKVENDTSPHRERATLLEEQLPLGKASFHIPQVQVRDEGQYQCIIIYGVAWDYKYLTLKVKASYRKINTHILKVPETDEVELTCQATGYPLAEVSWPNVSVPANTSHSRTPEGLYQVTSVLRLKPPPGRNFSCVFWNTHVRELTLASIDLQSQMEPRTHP

cynoPD-L1-Fc = cynoPD-L1-Fc (cynomolgus, UniProt G7PSE7 19-238, Fc carrier is left out of the letters.); assay: competition ELISA, cynoPD-L1-Fc coated; blocked ligand cyno PD-1-Fc-biotin, OD450
[1] = target: T2, Human TGFβ3 (Genscript, Z03430) (human, UniProt P10600 301-412); assay: ELISA; TGFβ3 coated, fusion titrated, anti-human Fc-HRP
T2 sequence (looked up): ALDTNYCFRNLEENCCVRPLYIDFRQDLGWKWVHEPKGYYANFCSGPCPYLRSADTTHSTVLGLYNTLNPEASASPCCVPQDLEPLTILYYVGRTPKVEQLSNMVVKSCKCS

human BMP-2 = target: T3, human BMP-2 (human, UniProt P12643 283-396); assay: ELISA, antigen (0.5 ug/mL) coated, anti-human Fc-HRP, OD450
T3 sequence (looked up): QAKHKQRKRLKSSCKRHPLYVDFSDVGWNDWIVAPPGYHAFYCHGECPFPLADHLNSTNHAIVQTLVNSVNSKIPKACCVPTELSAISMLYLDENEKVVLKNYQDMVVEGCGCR

cyno PD-L1 = target: T4, cyno PD-L1 (cynomolgus, UniProt G7PSE7 19-238); assay: ELISA, cyno PD-L1 coated, anti-human Fc-HRP, OD450
T4 construct: also called cynomolgus PD-L1

[2] = target: T5, hPD-L1 (Acro Biosystems, PD1-H5229) (human, UniProt Q9NZQ7 partial chain); assay: ELISA, hPD-L1 (0.5 ug/mL) coated, anti-human Fc-HRP, OD450
T5 construct: also called human PD-L1; hPD-L1 protein

human TGFβ1 [3] = target: T6, human TGFβ1 (human, UniProt P01137 partial chain); assay: ELISA, human TGFβ1 (0.5 ug/mL) coated, anti-human Fc-HRP, OD450
T6 construct: also called hTGFβ-1; TGFb1

[4] = target: T7, human PD-L1 expressed on cells (human, UniProt Q9NZQ7); assay: flow cytometry on MC38/hPD-L1 cells, Mean FITC-A
T7 construct: whole, on cells; also called MC38/hPD-L1

[5] = target: T7, human PD-L1 expressed on cells; assay: flow cytometry on PHA-activated human PBMC (T cells), Mean APC-A
human TGFβ1 [6] = target: T6, human TGFβ1; assay: bridging ELISA, hTGFβ-1 coated, detected with hPD-L1-biotin and streptavidin-HRP, OD450
human TGFβ2 = target: T8, human TGFβ2 (human, UniProt P61812 303-414); assay: ELISA; fusion coated, TGFβ2 titrated, biotinylated anti-TGFβ2 and HRP-streptavidin
T8 sequence (looked up): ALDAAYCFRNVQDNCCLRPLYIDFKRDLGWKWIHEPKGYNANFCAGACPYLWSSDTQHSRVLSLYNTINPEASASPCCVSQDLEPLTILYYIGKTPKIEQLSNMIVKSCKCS

mouse TGFβ2 = target: T9, mouse TGFβ2 (mouse, UniProt P27090 303-414); assay: as above
T9 sequence (looked up): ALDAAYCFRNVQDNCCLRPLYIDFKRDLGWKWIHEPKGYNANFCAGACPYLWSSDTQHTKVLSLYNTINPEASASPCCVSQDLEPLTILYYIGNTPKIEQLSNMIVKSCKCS

[7] = target: T5, hPD-L1 (Acro Biosystems, PD1-H5229); assay: ELISA, human PD-L1 coated, anti-human Fc-HRP, OD450
[8] = target: T7, human PD-L1 expressed on cells; assay: cell-based or functional assay
[9] = target: T7, human PD-L1 expressed on cells; assay: flow cytometry on activated human T cells, Mean FITC-A
[10] = target: T7, human PD-L1 expressed on cells; assay: flow cytometry on EMT6/hPD-L1 cells, Mean FITC-A
[11] = target: cynomolgus PD-L1 on activated cynomolgus T cells (cynomolgus, UniProt G7PSE7 19-290); assay: flow cytometry on PHA-activated cynomolgus PBMC (T cells), Mean APC-A
human TGFβ1 [12] = target: T6, human TGFβ1; assay: cell-based or functional assay
[13] = target: T7, human PD-L1 expressed on cells; assay: flow cytometry on NCI-H460 cells, Mean FITC-A
human PD-L1-Fc = target: T10, human PD-L1-Fc (human, UniProt Q9NZQ7 partial chain); assay: competition ELISA, hPD-L1-Fc coated; blocked ligand hPD-1-Fc-biotin, OD450
T10 construct: also called hPD-L1-Fc; human PD-L1-Fc (Sino Biological, 70110-D02H); not shown: Fc part

[14] = target: T5, hPD-L1 (Acro Biosystems, PD1-H5229); assay: ELISA, hPD-L1 (0.5 ug/mL) coated, anti-human Fc-HRP, OD450; remark: listed apart in the source
[15] = target: T7, human PD-L1 expressed on cells; assay: flow cytometry on NCI-H292 cells, Mean FITC-A

T5 sequence (Q9NZQ7 19-238 limits assumed): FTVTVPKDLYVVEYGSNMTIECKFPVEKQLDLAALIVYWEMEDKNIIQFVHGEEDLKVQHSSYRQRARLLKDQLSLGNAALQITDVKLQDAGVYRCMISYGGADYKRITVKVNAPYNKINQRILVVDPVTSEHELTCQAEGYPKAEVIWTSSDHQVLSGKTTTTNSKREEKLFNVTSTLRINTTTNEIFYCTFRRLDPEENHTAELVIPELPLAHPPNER
T6 sequence (P01137 279-390 limits assumed): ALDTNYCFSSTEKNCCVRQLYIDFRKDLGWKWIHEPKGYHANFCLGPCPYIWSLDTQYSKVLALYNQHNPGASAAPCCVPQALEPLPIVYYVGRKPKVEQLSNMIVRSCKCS
T7 sequence (Q9NZQ7 19-290): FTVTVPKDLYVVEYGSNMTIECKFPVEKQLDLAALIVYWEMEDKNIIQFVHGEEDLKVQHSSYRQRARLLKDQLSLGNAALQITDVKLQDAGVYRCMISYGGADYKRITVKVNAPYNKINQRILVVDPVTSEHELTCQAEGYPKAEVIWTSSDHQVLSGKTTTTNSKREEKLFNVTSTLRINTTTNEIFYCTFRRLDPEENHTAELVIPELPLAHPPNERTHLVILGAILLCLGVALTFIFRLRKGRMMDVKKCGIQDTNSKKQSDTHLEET
Sequence of human PD-L1-Fc (Q9NZQ7 19-239 limits assumed): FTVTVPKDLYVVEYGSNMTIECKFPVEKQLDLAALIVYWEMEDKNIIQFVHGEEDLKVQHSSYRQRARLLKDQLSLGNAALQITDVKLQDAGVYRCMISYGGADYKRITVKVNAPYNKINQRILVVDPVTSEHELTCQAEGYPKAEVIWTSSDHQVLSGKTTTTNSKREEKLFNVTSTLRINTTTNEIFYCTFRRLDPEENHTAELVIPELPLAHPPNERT
Sequence of cynoPD-L1-Fc (G7PSE7 entry or part of it limits assumed): as the sequence (Q9NZQ7 19-238 limits assumed) above, with A33T, A34S, S62N, R68Q, Q82R, F173L, T185A, T192I, H215L counted along it
Sequence of cyno PD-L1 (G7PSE7 entry or part of it limits assumed): as the sequence (Q9NZQ7 19-238 limits assumed) above, with A33T, A34S, S62N, R68Q, Q82R, F173L, T185A, T192I, H215L counted along it

B1: AM4B6-hIgG1-TGFβRII′ (other)
heavy: QVQLVQSGAEVKKPGASVKVSCKASGYVFTDYYMNWVRQAPGQSLEWMGDINPNNAETLYNHKFKGRVTVTVDKSISTAYMELSRLRSDDTAVYYCVKWGDGPFAYWGQGTLVTVSS[human IgG1 constant region omitted here]GGGGSGGGGSGGGGSGGGGSGGAVKFPQLCKFCDVRFSTCDNQKSCMSNCSITSICEKPQEVCVAVWRKNDENITLETVCHDPKLPYHDFILEDAASPKCIMKEKKKPGETFFMCSCSSDECNDNIIFSEEYNTSNPD
light: DIQMTQSPSSLSASVGDRVTITCKASQNVGAAVAWYQQKPGKAPKLLIYSVSDRYTGVPSRFSGSGSGTDFTLTISSLQPEDIATYYCQQYSNYPTFGQGTKLEIKRTVAAPSVFIFPPSDEQLKSGTASVVCLLNNFYPREAKVQWKVDNALQSGNSQESVTEQDSKDSTYSLSSTLTLSKADYEKHKVYACEVTHQGLSSPVTKSFNRGEC
**Q.** Does B1 bind (hPD-L2)?
**A.** no binding (tested: 100 nM)

**Q.** And the IC50 (cynoPD-L1-Fc)?
**A.** 1.83 nM

**Q.** And the EC50 [1]?
**A.** 5.26 nM

**Q.** Does B1 bind (human BMP-2)?
**A.** no binding (tested: 100 nM)

**Q.** What about the EC50 (cyno PD-L1) of the same binder?
**A.** 0.189 nM

**Q.** And the “EC50 (read off the curve)” value [2]?
**A.** ~0.1 nM

**Q.** What about the “EC50 (read off the curve)” value (human TGFβ1 [3]) of the same binder?
**A.** ~0.9 nM

**Q.** And the EC50 [4]?
**A.** 0.437 nM

**Q.** And the EC50 [5]?
**A.** 0.644 nM

**Q.** And the “EC50 (read off the curve)” value (human TGFβ1 [6])?
**A.** ~0.5 nM

**Q.** What about the EC50 (human TGFβ2) of the same binder?
**A.** 8.46 nM

**Q.** What about the EC50 (mouse TGFβ2) of the same binder?
**A.** 8.88 nM

**Q.** And the EC50 [7]?
**A.** 0.24 nM

**Q.** What about the “IC50 (so in the source), NFAT-luciferase luminescence, hPD-L1/hPD-1 reporter cell assay” value [8] of the same binder?
**A.** 0.771 nM

**Q.** What about the EC50 [9] of the same binder?
**A.** 0.206 nM

**Q.** What about the EC50 [10] of the same binder?
**A.** 0.261 nM

**Q.** And the EC50 [11]?
**A.** 1.31 nM

**Q.** What about the “IC50 of blocking TGFβ1 signaling (TGFβ reporter HEK-293 cell line, luciferase)” value (human TGFβ1 [12]) of the same binder?
**A.** 0.35 nM

**Q.** And the EC50 [13]?
**A.** 0.3 nM

**Q.** What about the IC50 (human PD-L1-Fc) of the same binder?
**A.** 2.02 nM

**Q.** What about the “EC50 (read off the curve)” value [14] of the same binder?
**A.** ~0.1 nM

**Q.** What about the EC50 [15] of the same binder?
**A.** 0.298 nM
